Laboratory results: a collection of fitness landscapes (doi:10.1016/j.celrep.2020.107928)
Whole data set: some 81,000 sequences, median “one-hybrid fitness for binding parS DNA” near -0.17, cut for the highest 2% near 0.51. The list shows a part of the results.

B1: Caulobacter ParB omega fusion; a variant is named by its letters at X, in order, B8GW30 (parent)
chain: MESVVVGEPGMSEGRRGLGRGLSALLGEVDAAPAQAPGEQLGGSREAPIEILQRNPDQPRRTFREEDLEDLSNSIREKGVLQPILVRPSPDTAGEYQIVAGERAWRAAQRAGLKTVPIMVRELDDLAVLEIGIIENVQRADLNVLEEALSYKVLMEKFERTQENIAQTIGKSXSHVANXMRLLXLPDEVQSYLVSGELTAXHARAIAAAADPVALAKQIIEGGLSVRETEALARKAPNLSAGKSKGGRPPRVKDTDTQALESDLSSVLGLDVSIDHRGSTGTLTITYATLEQLDDLCNRLTRGI

Variants of: B1
Experiment: one-hybrid fitness for binding parS DNA (scaled: cognate 1, non-cognate 0); higher = stronger binding
Details: with parS DNA site
Procedure, shortened: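 Fitness is the rescaled log change in variant-to-wild-type read ratio, measured by Illumina sequencing of plasmids before and after bacterial one-hybrid selection. The scale puts cognate at 1 and non-cognate at 0. Selection of Caulobacter ParB libraries, four specificity codons randomised, took place in E. coli USO with a HIS3 reporter, site 19 bp from the promoter, over 48 hours at 37°C on M9-minus-histidine with 0.1 mM IPTG and 5 mM 3-AT.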

Variant | one-hybrid fitness for binding parS DNA
STQW | ≤ 0.2
QGLS | ≤ 0.2
VQRR | ≤ 0.2
YPDT | ≤ 0.2
KTWD | ≤ 0.2
KAGM | ≤ 0.2
VQDV | ≤ 0.2
DFFV | ≤ 0.2
ADRS | ≤ 0.2
LVYG | ≤ 0.2
STTP | ≤ 0.2
VYRT | ≤ 0.2
VHFM | ≤ 0.2
CYNK | ≤ 0.2
LGQN | ≤ 0.2
CLSG | ≤ 0.2
FGVN | ≤ 0.2
TAHW | ≤ 0.2
MMNR | ≤ 0.2
QKPK | ≤ 0.2
GLAY | ≤ 0.2
PWNP | ≤ 0.2
CQHV | ≤ 0.2
FRSK | ≤ 0.2
QCQD | ≤ 0.2

Variant | one-hybrid fitness for binding parS DNA
SGER | ≤ 0.2
YKSW | ≤ 0.2
EALC | ≤ 0.2
QSRE | ≤ 0.2
DKTC | ≤ 0.2
HGTW | ≤ 0.2
SSHT | ≤ 0.2
NKCV | ≤ 0.2
RCGQ | ≤ 0.2
YSFV | ≤ 0.2
SPAY | ≤ 0.2
NIVT | ≤ 0.2
NSSR | ≤ 0.2
NHMC | ≤ 0.2
VRSV | ≤ 0.2
HHYT | ≤ 0.2
RKRK | ≤ 0.2
GGNR | ≤ 0.2
NGCG | ≤ 0.2
RMMH | ≤ 0.2
RWQA | 0.404
CTTD | ≤ 0.2
TEHA | ≤ 0.2
VVSI | ≤ 0.2
YGNS | ≤ 0.2

Variant | one-hybrid fitness for binding parS DNA
ARLA | ≤ 0.2
QKLA | ≤ 0.2
YRAR | ≤ 0.2
RFHD | ≤ 0.2
SPKL | ≤ 0.2
VQRS | ≤ 0.2
IRNH | ≤ 0.2
YVPF | ≤ 0.2
QNGS | ≤ 0.2
QSKV | ≤ 0.2
YDTE | ≤ 0.2
QVWD | ≤ 0.2
WLQA | ≤ 0.2
HPRV | ≤ 0.2
VTAC | ≤ 0.2
AGAD | ≤ 0.2
QNSD | ≤ 0.2
RTKI | ≤ 0.2
HRDK | ≤ 0.2
ETAG | ≤ 0.2
DAPW | ≤ 0.2
RVIW | ≤ 0.2
PKCR | ≤ 0.2
RFSE | ≤ 0.2
IWPS | ≤ 0.2

Variant | one-hybrid fitness for binding parS DNA
LRHC | ≤ 0.2
VGSE | ≤ 0.2
IAHS | ≤ 0.2
DANL | ≤ 0.2
HLRW | ≤ 0.2
MLGY | ≤ 0.2
EDCE | ≤ 0.2
THSL | ≤ 0.2
LEGR | ≤ 0.2
DATH | ≤ 0.2
GLPA | ≤ 0.2
RPLH | ≤ 0.2
ARNE | ≤ 0.2
KHRY | ≤ 0.2
ARWY | ≤ 0.2
KRRW | ≤ 0.2
RADY | 0.389
EDRM | ≤ 0.2
WSLP | ≤ 0.2
AGDR | ≤ 0.2
RRIV | ≤ 0.2
YDGP | ≤ 0.2
PKIR | ≤ 0.2
DPRF | ≤ 0.2
AWHI | ≤ 0.2

Variant | one-hybrid fitness for binding parS DNA
QTIW | ≤ 0.2
RTEF | 0.202
EHKG | ≤ 0.2
QECS | ≤ 0.2
SFYN | ≤ 0.2
LQKY | ≤ 0.2
QQGG | ≤ 0.2
EYTM | ≤ 0.2
KVSY | ≤ 0.2
LFGG | ≤ 0.2
NCWR | ≤ 0.2
WAHS | ≤ 0.2
MGEG | ≤ 0.2
NGRT | ≤ 0.2
IWME | ≤ 0.2
DTMP | ≤ 0.2
WHAD | 0.215
KRTC | ≤ 0.2
PYID | ≤ 0.2
TTWS | ≤ 0.2
QKTV | ≤ 0.2
WMYR | ≤ 0.2
FFTR | ≤ 0.2
RHCY | 0.371
CLRC | ≤ 0.2

Variant | one-hybrid fitness for binding parS DNA
HMQA | ≤ 0.2
YSGE | ≤ 0.2
AERR | ≤ 0.2
TFSS | ≤ 0.2
LSLS | ≤ 0.2
PYYS | ≤ 0.2
RHCR | ≤ 0.2
QECT | ≤ 0.2
RCYS | 1
QQQH | ≤ 0.2
VKWG | ≤ 0.2
STDL | ≤ 0.2
PFQA | ≤ 0.2
QYRG | ≤ 0.2
RRFF | ≤ 0.2
NWGG | ≤ 0.2
HKLG | ≤ 0.2
AHDM | 0.24
DFQG | ≤ 0.2
RSCK | ≤ 0.2
VVNC | ≤ 0.2
NYRS | ≤ 0.2
ARSF | ≤ 0.2
KPSY | ≤ 0.2
YCRR | ≤ 0.2

Variant | one-hybrid fitness for binding parS DNA
KLNS | ≤ 0.2
DSFS | ≤ 0.2
DWLV | ≤ 0.2
QAML | ≤ 0.2
KNAV | ≤ 0.2
NMGN | ≤ 0.2
AKAM | ≤ 0.2
GRMM | ≤ 0.2
AKMC | ≤ 0.2
GLPG | ≤ 0.2
QCPI | ≤ 0.2
NCKT | ≤ 0.2
PEAR | ≤ 0.2
RLWC | 0.952
HPPL | ≤ 0.2
CHAC | ≤ 0.2
TMKD | ≤ 0.2
VTSV | ≤ 0.2
KPMT | ≤ 0.2
HPPC | ≤ 0.2
HLAP | ≤ 0.2
AIYH | ≤ 0.2
QLTW | ≤ 0.2
STYN | ≤ 0.2
SKWS | ≤ 0.2

Variant | one-hybrid fitness for binding parS DNA
CRVK | ≤ 0.2
SNTY | ≤ 0.2
GRTT | ≤ 0.2
TDHM | ≤ 0.2
NWIV | 0.206
RDKW | ≤ 0.2
HPNR | ≤ 0.2
QMNV | ≤ 0.2
VTKT | ≤ 0.2
APRA | ≤ 0.2
SSAY | ≤ 0.2
RYLV | ≤ 0.2
KMHM | ≤ 0.2
RLSV | ≤ 0.2
SCLV | ≤ 0.2
RTMC | 0.982
ACCT | ≤ 0.2
VLLM | ≤ 0.2
MILT | ≤ 0.2
FPGS | ≤ 0.2
